# In the supplement of paper PMC8728848:
# Some of the results follow.
# B1: EULS2 M2 (Oryza sativa) (protein)
# chain: MVYCRANPNYAMTARNGAVVLAPANPKDEYQHWIKDMRWSTSIKDEEGYPAFALVNKATGQAIKHSLGQSHPVRLVPYNPEVMDESVLWTESRDVGNGFRCIRMVNNIYLNFDAFHGDKYHGGVRDGTDIVLWKLCEGDSQRWKIQPYYILEQKLISEEDLNSAVDHHHHHH
# Tests used:
# Assay in all cases: glycan array binding signal (z-score within array); higher = stronger binding
# Conditions in all cases: glycan notation: IUPAC condensed, linker removed
# Gal(b1-2)Gal = molecular target: Gal(b1-2)Gal
# In short: (§1)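 The binding signal is a Z-score computed within each array. Data were drawn from 3228 arrays in the Consortium for Functional Glycomics database, restricted to those with a known protein sequence. Scores were averaged over arrays of the same protein sequence at different concentrations or buffers, and over linkers, and negative values can be taken as non-binding.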
# Gal(b1-3)Gal = molecular target: Gal(b1-3)Gal
# In short: as §1
# Gal(b1-3)Gal(b1-4)GlcNAc = molecular target: Gal(b1-3)Gal(b1-4)GlcNAc
# In short: as §1
# Gal(b1-3)GalNAc = molecular target: Gal(b1-3)GalNAc
# In short: as §1
# [1] = molecular target: Gal(b1-3)GalNAc(a1-3)[Fuc(a1-2)]Gal(b1-4)Glc
# In short: as §1
# [2] = molecular target: Gal(b1-3)GalNAc(a1-3)[Fuc(a1-2)]Gal(b1-4)GlcNAc
# In short: as §1
# Gal(b1-3)GalNAc(b1-3)Gal = molecular target: Gal(b1-3)GalNAc(b1-3)Gal
# In short: as §1
# [3] = molecular target: Gal(b1-3)GalNAc(b1-3)Gal(a1-4)Gal(b1-4)Glc
# In short: as §1
# [4] = molecular target: Gal(b1-3)GalNAc(b1-4)Gal(b1-4)Glc
# In short: as §1
# [5] = molecular target: Gal(b1-3)GalNAc(b1-4)[Neu5Ac(a2-3)]Gal(b1-4)Glc
# In short: as §1
# Gal(b1-3)GlcNAc = molecular target: Gal(b1-3)GlcNAc
# In short: as §1
# [6] = molecular target: Gal(b1-3)GlcNAc(a1-3)Gal(b1-4)GlcNAc
# In short: as §1
# [7] = molecular target: Gal(b1-3)GlcNAc(a1-6)Gal(b1-4)GlcNAc
# In short: as §1
# Gal(b1-3)GlcNAc(b1-2)Man = molecular target: Gal(b1-3)GlcNAc(b1-2)Man
# In short: as §1
# [8] = molecular target: Gal(b1-3)GlcNAc(b1-2)Man(a1-3)[Gal(b1-3)GlcNAc(b1-2)Man(a1-6)]Man(b1-4)GlcNAc(b1-4)GlcNAc
# In short: as §1
# [9] = molecular target: Gal(b1-3)GlcNAc(b1-2)Man(a1-3)[Gal(b1-3)GlcNAc(b1-2)Man(a1-6)]Man(b1-4)GlcNAc(b1-4)[Fuc(a1-6)]GlcNAc
# In short: as §1
# [10] = molecular target: Gal(b1-3)GlcNAc(b1-2)Man(a1-3)[GlcNAc(b1-4)][Gal(b1-3)GlcNAc(b1-2)Man(a1-6)]Man(b1-4)GlcNAc(b1-4)GlcNAc
# In short: as §1
# [11] = molecular target: Gal(b1-3)GlcNAc(b1-2)[Gal(b1-3)GlcNAc(b1-6)]Man(a1-6)[Gal(b1-3)GlcNAc(b1-2)Man(a1-3)]Man(b1-4)GlcNAc(b1-4)GlcNAc
# In short: as §1
# [12] = molecular target: Gal(b1-3)GlcNAc(b1-3)Gal(b1-3)GlcNAc
# In short: as §1
# [13] = molecular target: Gal(b1-3)GlcNAc(b1-3)Gal(b1-4)Glc
# In short: as §1
# [14] = molecular target: Gal(b1-3)GlcNAc(b1-3)Gal(b1-4)GlcNAc
# In short: as §1
# [15] = molecular target: Gal(b1-3)GlcNAc(b1-3)Gal(b1-4)GlcNAc(b1-2)Man(a1-3)[Gal(b1-3)GlcNAc(b1-3)Gal(b1-4)GlcNAc(b1-2)Man(a1-6)]Man(b1-4)GlcNAc(b1-4)GlcNAc
# In short: as §1
# [16] = molecular target: Gal(b1-3)GlcNAc(b1-3)Gal(b1-4)GlcNAc(b1-2)[Gal(b1-3)GlcNAc(b1-3)Gal(b1-4)GlcNAc(b1-6)]Man(a1-6)[Gal(b1-3)GlcNAc(b1-3)Gal(b1-4)GlcNAc(b1-2)Man(a1-3)]Man(b1-4)GlcNAc(b1-4)[Fuc(a1-6)]GlcNAc
# In short: as §1
# [17] = molecular target: Gal(b1-3)GlcNAc(b1-3)Gal(b1-4)GlcNAc(b1-3)Gal(b1-4)GlcNAc(b1-2)[Gal(b1-3)GlcNAc(b1-3)Gal(b1-4)GlcNAc(b1-3)Gal(b1-4)GlcNAc(b1-6)]Man(a1-6)[Gal(b1-3)GlcNAc(b1-3)Gal(b1-4)GlcNAc(b1-3)Gal(b1-4)GlcNAc(b1-2)Man(a1-3)]Man(b1-4)GlcNAc(b1-4)[Fuc(a1-6)]GlcNAc
# In short: as §1
# [18] = molecular target: Gal(b1-3)GlcNAc(b1-3)Gal(b1-4)GlcNAc(b1-6)[Gal(b1-3)GlcNAc(b1-3)]Gal(b1-4)Glc
# In short: as §1
# [19] = molecular target: Gal(b1-3)GlcNAc(b1-3)Gal(b1-4)[Fuc(a1-3)]GlcNAc
# In short: as §1
# [20] = molecular target: Gal(b1-3)GlcNAc(b1-3)Gal(b1-4)[Fuc(a1-3)]GlcNAc(b1-6)[Gal(b1-3)GlcNAc(b1-3)]Gal(b1-4)Glc
# In short: as §1
# [21] = molecular target: Gal(b1-3)GlcNAc(b1-3)GalNAc
# In short: as §1
# [22] = molecular target: Gal(b1-3)GlcNAc(b1-6)Gal(b1-4)GlcNAc
# In short: as §1
# [23] = molecular target: Gal(b1-3)GlcNAc(b1-6)GalNAc
# In short: as §1
# [24] = molecular target: Gal(b1-3)GlcNAc(b1-6)[Gal(b1-3)]GalNAc
# In short: as §1
# Gal(b1-3)GlcNAc6S = molecular target: Gal(b1-3)GlcNAc6S
# In short: as §1
# [25] = molecular target: Gal(b1-3)[Fuc(a1-4)]GlcNAc
# In short: as §1
# [26] = molecular target: Gal(b1-3)[Fuc(a1-4)]GlcNAc(b1-2)Man
# In short: as §1
# [27] = molecular target: Gal(b1-3)[Fuc(a1-4)]GlcNAc(b1-2)Man(a1-3)[Gal(b1-3)[Fuc(a1-4)]GlcNAc(b1-2)Man(a1-6)]Man(b1-4)GlcNAc(b1-4)[Fuc(a1-6)]GlcNAc
# In short: as §1
# [28] = molecular target: Gal(b1-3)[Fuc(a1-4)]GlcNAc(b1-3)Gal(b1-3)[Fuc(a1-4)]GlcNAc
# In short: as §1
# [29] = molecular target: Gal(b1-3)[Fuc(a1-4)]GlcNAc(b1-3)Gal(b1-4)[Fuc(a1-3)]GlcNAc
# In short: as §1
# [30] = molecular target: Gal(b1-3)[Fuc(a1-4)]GlcNAc(b1-6)GalNAc
# In short: as §1
# [31] = molecular target: Gal(b1-3)[GlcNAc(b1-6)]GalNAc
# In short: as §1
# [32] = molecular target: Gal(b1-3)[Neu5Ac(a2-6)]GalNAc
# In short: as §1
# [33] = molecular target: Gal(b1-3)[Neu5Ac(a2-6)]GlcNAc(b1-4)Gal(b1-4)Glc
# In short: as §1
# [34] = molecular target: Gal(b1-3)[Neu5Ac(b2-6)]GalNAc
# In short: as §1
# Gal(b1-4)Gal = molecular target: Gal(b1-4)Gal
# In short: as §1
# [35] = molecular target: Gal(b1-4)GalNAc(a1-3)[Fuc(a1-2)]Gal(b1-4)GlcNAc
# In short: as §1
# [36] = molecular target: Gal(b1-4)GalNAc(b1-3)[Fuc(a1-2)]Gal(b1-4)GlcNAc
# In short: as §1
binder,measurement,setting,value
B1,glycan array binding signal (z-score),Gal(b1-2)Gal,-0.134
same,glycan array binding signal (z-score),Gal(b1-3)Gal,-0.312
same,glycan array binding signal (z-score),Gal(b1-3)Gal(b1-4)GlcNAc,-0.911
same,glycan array binding signal (z-score),Gal(b1-3)GalNAc,-0.041
same,glycan array binding signal (z-score),[1],0.005
same,glycan array binding signal (z-score),[2],-0.262
same,glycan array binding signal (z-score),Gal(b1-3)GalNAc(b1-3)Gal,-0.267
same,glycan array binding signal (z-score),[3],-0.297
same,glycan array binding signal (z-score),[4],-0.124
same,glycan array binding signal (z-score),[5],-0.353
same,glycan array binding signal (z-score),Gal(b1-3)GlcNAc,-0.454
same,glycan array binding signal (z-score),[6],-0.333
same,glycan array binding signal (z-score),[7],-0.436
same,glycan array binding signal (z-score),Gal(b1-3)GlcNAc(b1-2)Man,0.177
same,glycan array binding signal (z-score),[8],0.061
same,glycan array binding signal (z-score),[9],0.015
same,glycan array binding signal (z-score),[10],-0.347
same,glycan array binding signal (z-score),[11],-0.336
same,glycan array binding signal (z-score),[12],0.437
same,glycan array binding signal (z-score),[13],-0.574
same,glycan array binding signal (z-score),[14],-0.483
same,glycan array binding signal (z-score),[15],-0.265
same,glycan array binding signal (z-score),[16],0.657
same,glycan array binding signal (z-score),[17],-1.02
same,glycan array binding signal (z-score),[18],-0.505
same,glycan array binding signal (z-score),[19],-0.526
same,glycan array binding signal (z-score),[20],-0.897
same,glycan array binding signal (z-score),[21],-0.34
same,glycan array binding signal (z-score),[22],0.228
same,glycan array binding signal (z-score),[23],-0.277
same,glycan array binding signal (z-score),[24],-0.31
same,glycan array binding signal (z-score),Gal(b1-3)GlcNAc6S,-0.282
same,glycan array binding signal (z-score),[25],-0.139
same,glycan array binding signal (z-score),[26],0.439
same,glycan array binding signal (z-score),[27],0.253
same,glycan array binding signal (z-score),[28],-0.418
same,glycan array binding signal (z-score),[29],-0.086
same,glycan array binding signal (z-score),[30],-0.451
same,glycan array binding signal (z-score),[31],-0.483
same,glycan array binding signal (z-score),[32],-0.427
same,glycan array binding signal (z-score),[33],-0.167
same,glycan array binding signal (z-score),[34],-0.425
same,glycan array binding signal (z-score),Gal(b1-4)Gal,-0.094
same,glycan array binding signal (z-score),[35],-0.48
same,glycan array binding signal (z-score),[36],-0.291
